Results: PubChem BioAssay AID2100 (National Center for Advancing Translational Sciences (NCATS), 2009)
The whole screen tested about 300,000 compounds, of which about 1,200 (0.4%) were called active. The inconclusive results got no clear call from the source; some entries with a clear call stand among them for comparison. Calls come from the whole dose curve; as a rule, active = well fitted inhibition curve with a large enough effect; inconclusive = small, poorly fitted or top-dose-only effect, or another doubt; inactive = no such curve, though single readings can be large or run the other way. Potencies beside an inconclusive call are fits to weak or partial responses and may not hold up.

Each compound was assayed against Lysosomal alpha-glucosidase (Homo sapiens) (UniProt P10253) (assay: qHTS Assay for Inhibitors and Activators of Human alpha-Glucosidase Cleavage of Glycogen). Conditions: recombinant GAA, glycogen substrate, Amplex Red glucose oxidase fluorescence; activity change, negative = inhibition: at 76.4 µM (top of the series) unless noted.
In short: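 Recombinant human alpha-glucosidase (4 nM final) hydrolysed bovine liver glycogen (30 ug) for 40 min at 37 C in pH 5.0 citrate/phosphate with 0.01% Tween-20. Released glucose detected by glucose oxidase/Amplex Red, Ex 573/Em 610 nm. Compounds up to 77 uM; AC50 from Hill fits.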
Potency is the fitted concentration of half-maximal effect.
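Throughout, for activity change, negative = inhibition: 0% = full enzyme reaction and -100% = no-enzyme basal signal.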

Row | SMILES | activity change, negative = inhibition | Potency
1 | COc1cccc(CNC(=O)CC(NC(C)=O)c2ccccc2)c1 (stereo not drawn) | inactive: 0.101% | 
2 | O=[N+]([O-])c1cc(-c2nc(-c3ccccc3)no2)ccc1NCc1ccco1 | inactive: -4.02% [at 76.3 µM] | 
3 | COc1cccc(N/N=C/c2cccc(Br)c2O)c1 |  | inconclusive: 35.5 µM [inhibitor, partial curve]
4 | CCOC(=O)/C(=N\Nc1ccccc1Cl)N1CC(C)OC(C)C1 (stereo not drawn) |  | inconclusive: 14.1 µM [inhibitor, partial curve]
5 | Nc1ncnc(N2CCOCC2)c1N |  | inconclusive: 8.84 µM [inhibitor, single point]
6 | COc1cc(/C=N/N=C(N)N)ccc1OCc1ccc(Cl)cc1 | inactive: -6.04% | 
7 | Cc1nc2c(ccc3c2ccc2nc(C)sc23)s1 | inactive: -15% | 
8 | Cc1nn(C(C)C(=O)NCCc2ccccc2)c(=O)c2c1sc1ccccc12 (stereo not drawn) | inactive: -10.3% [at 76.3 µM] | 
9 | CCCNC(=O)c1csc(Nc2cccc3ccccc23)n1 |  | inconclusive: 12.6 µM [inhibitor, partial curve, poor fit]
10 | Cc1ccc(NC(=O)CSc2nnc(CNC(=O)c3ccccc3F)o2)cc1 |  | inconclusive: 3.52 µM [inhibitor, single point]
11 | CC(C)(C)NC(=O)c1cc(C(C)(C)C)c(O)c(C(C)(C)C)c1 | inactive: -3.7% | 
12 | O=C1Cc2cc(S(=O)(=O)N3CCN(c4ccc(F)cc4)CC3)ccc2N1 |  | inconclusive: 37.7 µM [inhibitor, partial curve]
13 | COc1ccccc1NC(=O)CSc1nc(C)c2c(c1C#N)CCCC2 | inconclusive: 31.9% [activator] | 
14 | O=C(NNc1ccccc1[N+](=O)[O-])Nc1ccccc1 |  | inconclusive: 35.5 µM [inhibitor, partial curve]
15 | Cc1ccc([N+](=O)[O-])cc1Nc1nc(N2CCCC2)nc(N2CCCC2)n1 |  | active: 31.6 µM
16 | CCOc1ccc2c(c1)-c1c(ssc1=S)C(C)(C)N2 |  | active: 20 µM
17 | COc1cccc(C(=O)NC(=S)Nc2ccc(N(C)C)cc2)c1 |  | inconclusive: 12.6 µM [inhibitor, partial curve]
18 | COc1ccc(NS(=O)(=O)c2ccc(N3CCCC3)c(NC(=S)Nc3ccc(SC(F)F)cc3)c2)cc1 |  | inconclusive: 35.5 µM [inhibitor, partial curve]
19 | CSC(=S)N/N=C(\C)c1ccccc1 |  | inconclusive: 15.8 µM [inhibitor, partial curve]
20 | C/C(=N\NC(=S)NC1CCCCC1)c1ccc(C)o1 |  | inconclusive: 31.6 µM [inhibitor, single point]
21 | CC(C)Oc1ccc(/C=N/NC(N)=S)cc1 | inactive: -26.6% | 
22 | Cc1ccc(NC2=C(NCCO)C(=O)c3ccccc3C2=O)cc1 |  | inconclusive: 3.98 µM [inhibitor, full curve]
23 | CS(=O)(=O)NN1C(=O)c2ccccc2NC1c1c[nH]c2ccccc12 (stereo not drawn) |  | inconclusive: 39.5 µM [inhibitor, partial curve]
24 | ON1C2CCCCC2N(O)C1c1ccccc1C(F)(F)F (stereo not drawn) |  | inconclusive: 20 µM [inhibitor, partial curve]

Row | SMILES | activity change, negative = inhibition | Potency
25 | CCn1c(C)nc2cc(C(=O)NNC(=S)Nc3ccc(Cl)cc3Cl)ccc21 |  | inconclusive: 35.5 µM [inhibitor, single point]
26 | N#C/C(=N\Nc1ccccc1)C(N)=S |  | inconclusive: 22.4 µM [inhibitor, partial curve]
27 | O=C(c1ccc2c(c1)OCO2)[C@@H]1[C@@H]2C(=O)N(C3CCCCC3)C(=O)[C@@H]2C2c3ccccc3C=CN21 (stereo partly drawn) | inactive: 17.1% | 
28 | CC(C)CCN1C(=O)CC(NNC(=O)c2ccc(S(=O)(=O)N3CCCC3)cc2)C1=O (stereo not drawn) |  | inconclusive: 31.6 µM [inhibitor, partial curve]
29 | C/C(=N\Nc1nc2ccccc2[nH]1)c1ccc2c(c1)OCCO2 |  | active: 50.1 µM
30 | Cc1ccc(CSc2nc3cccnc3n2Cc2ccc(C(=O)NC3CC3)cc2)cc1 | inactive: -6.11% [at 76.3 µM] | 
31 | Cc1ccc(-c2nc3ccccn3c2NCc2ccc3c(c2)OCO3)cc1 |  | inconclusive: 31.4 µM [inhibitor, single point]
32 | CCc1nn(CC(=O)NCCc2ccc(Cl)cc2)c(=O)c2cc3c(OC)cccc3n12 |  | inconclusive: 11.2 µM [inhibitor, partial curve]
33 | O=C1NC2(CCC3(CC2)OCCO3)NN1c1ccccc1 |  | inconclusive: 5.01 µM [inhibitor, full curve]
34 | Cc1ccc(CNc2ccc(N3CCOCC3)cc2)cc1 |  | active: 6.31 µM
35 | Brc1ccc(-c2csc(N/N=C/c3ccc4c(c3)OCO4)n2)cc1 |  | inconclusive: 3.55 µM [inhibitor, full curve, poor fit]
36 | CCn1ncc(Br)c1C(=O)Nc1sc2c(c1C(N)=O)CCC2 | inconclusive: 66.2% [activator] | 
37 | COc1ccc(-c2nc(=S)[nH][nH]2)cc1OC |  | inconclusive: 50.1 µM [inhibitor, single point]
38 | CCOC(=O)/C=C1\SCC(=O)N1Cc1nnc(-c2ccccc2Br)o1 |  | inconclusive: 20 µM [inhibitor, partial curve]
39 | COc1cc(C2NC(=O)NC(C)=C2C(=O)OCc2ccc(C)cc2)cc(OC)c1O (stereo not drawn) |  | active: 9.92 µM
40 | Cc1cccc(NC(=S)NNC(=O)COc2ccc(Cl)cc2Cl)c1 |  | inconclusive: 50.1 µM [inhibitor, single point]
41 | O=C(O)c1ccc(/C=N/Nc2nc3ccccc3[nH]2)cc1 |  | inconclusive: 5.01 µM [inhibitor, partial curve]
42 | CC(C)(C)c1ccc(-c2noc(C(=O)NN)n2)cc1 |  | inconclusive: 35.5 µM [inhibitor, partial curve]
43 | CCOc1ccc(NC(=S)N(CCCN2CCOCC2)Cc2cn(C)c3ccccc23)cc1 | inactive: -15.8% | 
44 | COc1ccc(C2CC(=O)Nc3c2c(=O)[nH]c2nc4ccccc4n32)cc1 (stereo not drawn) |  | inconclusive: 11.2 µM [inhibitor, partial curve]
45 | C=CCn1c(-c2csc(-c3ccccc3)n2)n[nH]c1=S | inactive: -7.42% | 
46 | O=C(O)/C=C/C(=O)Nc1ccc(O)cc1 |  | active: 31.6 µM
47 | O=C(O)c1cc(NCc2c(F)cccc2Cl)ccc1N1CCOCC1 |  | active: 7.08 µM
48 | COc1ccc(NC(=S)N/N=C/c2ccc(F)cc2)cc1OC |  | inconclusive: 14.1 µM [inhibitor, partial curve]
